Binding signal data for 14 molecules are collected here from PMC12136788.

The other results are listed elsewhere or left out.

The chains are these.
B1: chr1:159061598:159062691:-|three_prime_utr|ENSG00000163568|control|control|control (ssRNA)
RNA: GGGAGUUCUACAGUCCGACGAUCUCAAUCAGAUUGUAAGUUACCUGAAAGCUGCAGUUCACAGGCUCCUCUCUCCACCAAAUUAGGAUAGAAUAAUUGCUGGAUAAACAAAUUCAGAAUAUCAACAGAUGAUCACAAUAAACACAACAGAGGAUUGAGCAUCA
B2: chr19:811491:811550:+|3pUTR|ENSG00000011304|msi1_unk|FALSE|overlapping (ssRNA)
RNA: GGGAGUUCUACAGUCCGACGAUCUAGCAAUAUUUCCAGUUGACCAAAUAUUCUAAUCUUUUUUCAUUUAUAUGCAAAAGAAAUAGUUUUAAGUAACUUUUUAUAGCAAGAUGAUACAAUGGUAUGAGUGUAAUCUAAACUUCCCAACAGAGGAUUGAGCAUCA
B3: chr4:138167974:138168075:-|3pUTR|ENSG00000151012|msi1|FALSE|unique (ssRNA)
RNA: GGGAGUUCUACAGUCCGACGAUCCACAAAAUCUGCAUUGUCCAUGUGAGUAAAGUAAAAUAAUUCCUGUUAUUUUUUUCUGUUAGAAAUAAGUAUGGAGGAUAUGUUUUUAAAAAUUUAUGAGUUAAUUGAAAUAUCCAUAUACAACAGAGGAUUGAGCAUCA
B4: chr8:120459219:120459329:+|CDS|ENSG00000172167|unk|total|mutant (ssRNA)
RNA: GGGAGUUCUACAGUCCGACGAUCUUUGGAUUUGAAAUCCGUUUUCCUGAAUUUUGUUUAAAGGGAGUCACACUUAAGAAUUUCCGUACUUCUAAUUUAAAUACUGACUUCCUUGCCAAAAAGAUCAUACCAUCAAAGGAUAAGCAACAGAGGAUUGAGCAUCA
B5: chr1:89935720:89935824:+|3pUTR|ENSG00000171492|msi1|FALSE|bound_elsewhere (ssRNA)
RNA: GGGAGUUCUACAGUCCGACGAUCUACAAGAUAAUGCAUUUUAGGAGUAGAUACAUCUUUUAAAAUAAAACAGAGAGGAUGCAUAGAAGGCUGAUAGAAGACAUAACUGAAUGUUCAAUGUUUGUAGGGUUUUAAGUCAUUCAUCAACAGAGGAUUGAGCAUCA
B6: ENSG00000198589:be:win_5501|CDS|ENSG00000198589|bound_else_gene|NA|bound_elsewhere_windowed (ssRNA)
RNA: GGGAGUUCUACAGUCCGACGAUCUGCUUAUAGAAGGAACAAGUCUGGUUUGCAUGAAGUCGAGUAGUUCAGUUGUGGAAUUGGUUAUGCUACUGUGUUCUCAGGAGUGGCAAAAUUCUAUUCAGAAGAAUGCAGGCCUUGCUUCAACAGAGGAUUGAGCAUCA
B7: chr8:65724783:65724899:-|CDS|ENSG00000205268|unk|FALSE|unique (ssRNA)
RNA: GGGAGUUCUACAGUCCGACGAUCAUAGGUGCUCUGAUACUAGCCACAGACAUCAGUCGCCAGAAUGAGUAUCUGUCUUUGUUUAGGUCCCAUUUGGAUAGAGGUGAUUUAUGCCUAGAAGACACCAGACACAGACAUUUGGUUCAACAGAGGAUUGAGCAUCA
B8: chr7:74195289:74195308:+|CDS_3pUTR|ENSG00000106682|msi1_unk|FALSE|overlapping (ssRNA)
RNA: GGGAGUUCUACAGUCCGACGAUCGCGACGCCCCUCAAUCAAGUAGCCAAUCCCAACUCUGCUAUCUUCGGGGGUGCCAGGCCUAGAGAGGAAGUCGUUCAAAAGGAGCAAGAAUGAGCCUGCGGUUGGGAGGGAAUGGGGCGUCAACAGAGGAUUGAGCAUCA
B9: chr12:27755550:27755651:+|3pUTR|ENSG00000061794|msi1|FALSE|unique (ssRNA)
RNA: GGGAGUUCUACAGUCCGACGAUCAUACUAAUGCUUAAUGGCAAUGAUUACUCCAGAGUUUUUUAAUUUUUACACUGGGGCAAUAGACUAGGAGGUCUCUGAUUUCUUCUUGGUCUAAAGUGUUUUGAUUUUAUUUCUACAUAACAACAGAGGAUUGAGCAUCA
B10: chr12:48782793:48782894:-|CDS|ENSG00000174233|msi1|total|mutant (ssRNA)
RNA: GGGAGUUCUACAGUCCGACGAUCGCACUGUUGGCCUGUGCCGCCGCCCUGUUCGUGGGGCUCAUGGUGGUGUGUAACCGGCACCGCUUCCGCCAGGACUCCAUGUGGGUGGUGAGCUACGUGGUGCUGGGCAUCCUGGCGGCACAACAGAGGAUUGAGCAUCA
B11: chr10:96982068:96982170:+|CDS|ENSG00000196233|unk|FALSE|unique (ssRNA)
RNA: GGGAGUUCUACAGUCCGACGAUCUCAGCAUUGGCAUCAGAGGCAGUUUUCACUCCUAAGCAGACCCUUACAAUUCCAGCCCCUAGACAUACAGUAGAUGUGCAGCUUCCCAGAGAAGACAACCCUGAAGAACCUAGCAAGGAACAACAGAGGAUUGAGCAUCA
B12: chr12:98549999:98550103:+|3pUTR|ENSG00000120802|unk|total|mutant (ssRNA)
RNA: GGGAGUUCUACAGUCCGACGAUCUGUUUCCCAUACUGUUUUCAGCCUUUUGUUUAUAAUCCGAAAUUGUGAGAAGCUUCAUUCCGUGUUUAAAAAUGUGGGGAGAUAAAUCAGACUUAACAUGUAUGUAAGAUCAAUUCACUUCAACAGAGGAUUGAGCAUCA
B13: chrX:65741246:65741425:+|3pUTR|ENSG00000147065|msi1|total|mutant (ssRNA)
RNA: GGGAGUUCUACAGUCCGACGAUCUAUUAUGUACUCUACUGAUAUCUAAAUAUUGAUUUCUGCCUUCCUUGCUAAUGCACCAUCCGAAGAUAUCCGUCUUGGGGCAGGAUGAUUUUGGCCUCAUUACUUUACCACCCCCACACCCAACAGAGGAUUGAGCAUCA
B14: chr4:121668310:121668420:-|3pUTR|ENSG00000164111|msi1_unk|total|mutant (ssRNA)
RNA: GGGAGUUCUACAGUCCGACGAUCCCUUCAGCACCUUCCGCUGCAUUUGUAUGCCAGUGCUUAACACAUUGCCUUAUUCAUACCCGCAUGCUCAUGACCAACACAUACACGUCACCGAAGAAAACCGUGGUGCUUCUUUCUGAUCAACAGAGGAUUGAGCAUCA

This test deals with MSI1 full-length (mouse, UniProt Q61474 1-362). The test is described as follows: nsRBNS (natural sequence RNA bind-n-seq); RBNS binding buffer (assumed for nsRBNS): 25 mM Tris pH 7.5, 150 mM KCl, 3 mM MgCl2, 0.01% Triton X-100, 500 ug/ml BSA, 20 U/ml SUPERase-In, 4 C; UNK is unkempt and MSI1 is Musashi-1; names of the RNAs are library labels; protein concentration not given here; high values mean tight binding.
Chain of UniProt Q61474 (Q61474 whole entry): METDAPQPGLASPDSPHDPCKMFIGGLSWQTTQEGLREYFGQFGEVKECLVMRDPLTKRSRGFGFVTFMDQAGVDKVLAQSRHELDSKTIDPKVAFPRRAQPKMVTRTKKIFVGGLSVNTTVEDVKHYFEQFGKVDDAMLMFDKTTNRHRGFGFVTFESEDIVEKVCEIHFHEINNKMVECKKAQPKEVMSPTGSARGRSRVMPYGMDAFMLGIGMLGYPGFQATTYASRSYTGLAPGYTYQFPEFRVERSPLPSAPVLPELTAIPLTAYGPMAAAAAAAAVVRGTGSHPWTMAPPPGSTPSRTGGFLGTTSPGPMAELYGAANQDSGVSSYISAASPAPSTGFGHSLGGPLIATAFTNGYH
Molecule B1 gave a binding signal of 1.94 enrichment R.
On to B2, for which the binding signal was found to be 0.9 enrichment R.
Then B3, with 1.68 enrichment R.
In turn, B4 gave a binding signal of 0.651 enrichment R.
Then B5, with 3.59 enrichment R; and B6, with 0.522 enrichment R.
As for B7, the figure is 0.912 enrichment R; as for B8, 0.558 enrichment R; as for B9, 0.471 enrichment R.
Then B10, with 0.346 enrichment R; and B11, with 1.72 enrichment R; and B12, with 0.426 enrichment R.
Molecule B13 gave a binding signal of 0.602 enrichment R.
As for B14, the figure is 0.594 enrichment R.
